Measurements published in paper PMC3517537.
These are yes or no findings as the source states them, for the method shown. Binding seen in cells or lysates may run through a third protein. Some entries that bind do so weakly or less than the wild type. For some assays here: Tags and fused reporters may be left off the sequences shown.

Sequences of proteins named here, by UniProt entry; tags and fusion partners are left off. A change or cut given only in a name is not applied to a line headed by its entry.
UniProt Q15691: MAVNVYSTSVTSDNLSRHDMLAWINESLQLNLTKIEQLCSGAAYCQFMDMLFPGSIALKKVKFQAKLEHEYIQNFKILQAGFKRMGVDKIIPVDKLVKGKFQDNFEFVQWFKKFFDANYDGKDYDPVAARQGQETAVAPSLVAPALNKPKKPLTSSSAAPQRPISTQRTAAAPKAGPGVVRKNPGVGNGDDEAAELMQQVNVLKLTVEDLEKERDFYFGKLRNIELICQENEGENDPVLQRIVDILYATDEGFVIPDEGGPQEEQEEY

Tests used:
[1] = biological target: T1, HA-tagged hGTSE1 (pcDNA3-HA-hGTSE1) (human) (UniProt Q9NYZ3); experiment: co-IP; HEK293T cells transfected with HA-tagged hGTSE1 and GFP-tagged EB1 or its deletion mutants for 24 h; immunoprecipitation with anti-HA antibody, blot with anti-GFP and anti-HA
T1 sequence: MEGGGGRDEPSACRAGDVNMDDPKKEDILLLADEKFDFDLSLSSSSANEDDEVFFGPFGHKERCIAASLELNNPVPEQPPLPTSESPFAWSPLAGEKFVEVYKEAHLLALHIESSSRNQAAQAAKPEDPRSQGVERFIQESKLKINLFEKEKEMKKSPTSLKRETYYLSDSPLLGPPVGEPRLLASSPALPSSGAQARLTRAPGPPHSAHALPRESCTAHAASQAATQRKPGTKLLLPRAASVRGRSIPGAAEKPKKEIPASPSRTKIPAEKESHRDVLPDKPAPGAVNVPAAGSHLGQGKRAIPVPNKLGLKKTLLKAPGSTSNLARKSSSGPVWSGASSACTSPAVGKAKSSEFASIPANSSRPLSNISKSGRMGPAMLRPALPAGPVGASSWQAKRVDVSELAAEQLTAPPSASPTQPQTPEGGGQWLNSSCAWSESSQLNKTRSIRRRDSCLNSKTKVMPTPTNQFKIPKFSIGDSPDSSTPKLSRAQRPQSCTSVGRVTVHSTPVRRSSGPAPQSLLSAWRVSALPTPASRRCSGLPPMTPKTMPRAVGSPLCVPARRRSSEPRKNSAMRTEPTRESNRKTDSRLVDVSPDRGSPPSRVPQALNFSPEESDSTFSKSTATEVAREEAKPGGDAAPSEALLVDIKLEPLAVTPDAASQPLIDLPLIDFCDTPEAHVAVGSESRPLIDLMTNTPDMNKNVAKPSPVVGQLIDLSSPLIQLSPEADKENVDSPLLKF

[2] = biological target: T2, GTSE1 (G-2 and S-phase expressed 1), endogenous (human (endogenous in U2OS)) (UniProt Q9NYZ3); experiment: co-IP; U2OS cell lysate (50 mM Tris-HCl pH 8, 150 mM NaCl, 1% Nonidet P-40), anti-GTSE1 antibody prebound to Protein A-Sepharose, 4°C 2 h, anti-GFP as control antibody; Western blot with anti-EB1
T2 sequence: T1 sequence

[3] = biological target: T3, GST-hGTSE1 (full-length hGTSE1 fused to GST, pGEX-4T1) (human) (UniProt Q9NYZ3); experiment: pull-down; purified GST, GST-hGTSE1 or GST-EB1 immobilised on glutathione-Sepharose 4B beads, incubated with 35S-labeled in vitro translated proteins in 150 mM NaCl, 20 mM Hepes pH 7.5, 0.05% NP-40, 10% glycerol; autoradiography; only the target purified
T3 sequence: T1 sequence

binding [1] | Substance | also measured
binds | C-terminal EB1-GFP fragment containing the EBH domain (residues 143-268) (from UniProt Q15691 143-268) (domain or fragment) | 
 | EB1, endogenous (from UniProt Q15691 1-268) | binding [2]: binds
no binding | N-terminal EB1-GFP fragment (residues 1-143) (from UniProt Q15691 1-143) (domain or fragment) | 
binds | full length EB1-GFP (pEGFP N1-EB1) (from UniProt Q15691 1-268) | 
 | in vitro translated 35S-labeled EB1 (from UniProt Q15691 1-268) | binding [3]: binds
